Source: PMC4336329 (PLoS ONE, 2015)
The whole screen tested about 310,000 compounds, of which about 2,200 (0.71%) showed an effect of 50% or more. Effects have a minus sign here. The list shows a part of the results.

Biological target: human ether-à-go-go-related gene (hERG) potassium channel (human, UniProt Q12809)
Experiment: primary screen, population patch clamp on CHO cells stably expressing hERG

Chain of human ether-à-go-go-related gene (hERG) potassium channel (Q12809 whole entry, looked up): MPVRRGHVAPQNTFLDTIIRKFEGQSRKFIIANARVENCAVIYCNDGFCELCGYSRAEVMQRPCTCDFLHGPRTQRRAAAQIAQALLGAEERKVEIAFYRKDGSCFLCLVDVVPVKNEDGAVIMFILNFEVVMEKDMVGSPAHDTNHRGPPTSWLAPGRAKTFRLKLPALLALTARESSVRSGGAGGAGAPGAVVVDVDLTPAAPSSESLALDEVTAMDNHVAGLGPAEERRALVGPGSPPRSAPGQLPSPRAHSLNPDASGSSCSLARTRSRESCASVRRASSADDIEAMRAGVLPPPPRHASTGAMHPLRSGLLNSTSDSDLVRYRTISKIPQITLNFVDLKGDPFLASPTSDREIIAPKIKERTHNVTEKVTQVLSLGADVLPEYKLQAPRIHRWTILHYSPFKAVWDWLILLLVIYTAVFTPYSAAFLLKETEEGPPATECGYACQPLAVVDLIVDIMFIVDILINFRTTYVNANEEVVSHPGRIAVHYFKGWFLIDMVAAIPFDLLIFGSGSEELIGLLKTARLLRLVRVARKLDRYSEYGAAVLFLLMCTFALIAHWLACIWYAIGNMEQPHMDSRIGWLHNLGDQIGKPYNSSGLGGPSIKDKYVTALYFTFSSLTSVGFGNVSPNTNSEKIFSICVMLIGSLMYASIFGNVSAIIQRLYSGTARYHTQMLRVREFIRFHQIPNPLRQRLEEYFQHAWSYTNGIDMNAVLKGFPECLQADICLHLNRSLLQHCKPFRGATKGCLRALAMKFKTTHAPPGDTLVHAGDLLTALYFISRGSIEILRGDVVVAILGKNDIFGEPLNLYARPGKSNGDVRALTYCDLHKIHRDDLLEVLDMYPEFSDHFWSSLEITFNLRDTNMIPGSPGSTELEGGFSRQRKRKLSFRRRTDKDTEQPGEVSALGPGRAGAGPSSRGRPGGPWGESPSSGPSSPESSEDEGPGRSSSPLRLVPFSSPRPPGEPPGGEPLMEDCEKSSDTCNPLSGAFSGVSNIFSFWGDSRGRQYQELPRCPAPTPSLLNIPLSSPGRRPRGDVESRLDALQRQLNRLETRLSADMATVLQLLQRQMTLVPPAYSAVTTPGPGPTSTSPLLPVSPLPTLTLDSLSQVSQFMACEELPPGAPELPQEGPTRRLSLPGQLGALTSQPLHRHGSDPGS

SMILES | hERG current change (%, negative = inhibition) at 1uM [%]
Cc1cc(NS(=O)(=O)c2ccc(NC(=O)c3cnc4sccn4c3=O)cc2)nc(C)n1 | 13.9
Cc1cccc(OCCCC(=O)Nc2ccc(Cl)c(S(=O)(=O)N3CCOCC3)c2)c1 | 4.32
O=C(Cc1ccccn1)c1ccc(Cl)cc1 | 12.9
N#C/C(=C\c1c(N2CCC(C(N)=O)CC2)nc2ccccn2c1=O)S(=O)(=O)c1ccc(Cl)cc1 | 3.91
O=C(COC(=O)CCCSc1nc2ccccc2[nH]1)Nc1ccc(Oc2ccccc2)cc1 | 14.2
CCOc1cc(NS(=O)(=O)c2ccc(OC)cc2)c(OCC)cc1NC(C)=O | 11
Cc1cc(C)cc(OCC(=O)N2CCc3ccccc3C2)c1 | 7.93
CCCOc1ccc(/C(O)=C2/C(=O)C(=O)N(CCN(C)C)C2c2ccncc2)cc1 (stereo not shown) | 16.9
COc1ccc(C(C)=O)cc1COC(=O)c1cc(=O)c2ccccc2o1 | 4.54
CCN(CC)CCNC(=O)C(Oc1ccccc1)Oc1ccccc1 | -46.9
CN1C(=O)/C(=C/c2ccc3c(c2)OCO3)N=C1c1ccccc1 | 15.7
COc1ccc(CNC(=O)C(c2ccc(C)cc2)N(Cc2cccs2)C(=O)c2ccc3c(c2)OCCO3)cc1 (stereo not shown) | 16.3
CCN1CCCC1CNC(=O)c1cc2ccc(OC)cc2[nH]1 (stereo not shown) | 5.34
COc1ccc(NC(=O)c2c(N)no[n+]2[O-])cc1 | 1.89
O=C(c1ccccc1S(=O)(=O)NCC(O)COc1ccc([N+](=O)[O-])cc1)N1CCCCC1 (stereo not shown) | -12.5
COc1ccccc1CNC(=O)C/C(C)=N/NC(=O)COc1ccc(C)cc1Br | -14.4
O=C(CN1C(=O)CSc2ccccc21)N/N=C/c1ccco1 | 8.45
Cc1ccccc1NC(=O)c1ccc(C)c(S(=O)(=O)NCc2cccnc2)c1 | 16.7
Cc1coc2c(C)c3oc(=O)c(CCC(=O)N4CCC(C(=O)NCCCC(=O)O)(c5ccccc5)CC4)c(C)c3cc12 | 9.81
COc1cc2c(cc1OC)CN(C(=O)c1cccc([N+](=O)[O-])c1)CC2 | 15.2
O=C1NC(=O)C(CCc2ccncc2)(C2CCCCC2)C(=O)N1 | 11.2
CCOc1ccc(-c2csc(NC(=O)c3ccc(S(=O)(=O)N4CCc5ccccc5C4)cc3)n2)cc1 | 13.8

SMILES | hERG current change (%, negative = inhibition) at 1uM [%]
CCN(Cc1ccccc1)C(=O)CCS(=O)(=O)c1ccc2c(c1)n(C)c(=O)c(=O)n2C | 5.12
CC1CCCCN1C(=O)Cn1c(=O)oc2cc(S(=O)(=O)N3CCCCC3)ccc21 (stereo not shown) | 17.4
C=CCn1c(O)c(C(CC)=NCc2ccc3c(c2)OCO3)c(=O)[nH]c1=O | 13.1
O=C(Cc1cccs1)NCc1ccccc1 | 5.91
Cc1cc(N2CCCCC2C)nc(-c2ccccc2O)n1 (stereo not shown) | -19.4
O=C(CCl)Nc1c2c(nn1-c1ccccc1)CSC2 | 2.65
COc1ccc(S(=O)(=O)NNC(=O)c2sccc2-n2cccc2)cc1 | 6.85
C=CCn1c(SCC(=O)Nc2cc(C)cc(C)c2)nnc1-c1cnccn1 | -13.8
CCc1ccccc1NC(=S)Nn1cnnc1 | 13.5
CCc1sc(N(C(=O)Cc2ccccc2)c2ccccc2F)nc1-c1ccc(C)cc1 | 27
COC(=O)Nc1c(-c2ccccc2)nc2ccc(C)cn12 | 3.16
COc1ccccc1NC(=O)Nc1cccc(C(=O)O)c1 | 17.1
Cn1c(SCc2cccnc2)nc2cccnc21 | 3.12
COc1ccc(C2=NS(=O)(=O)N(C)C(C(=O)NC3CCCCC3)=C2)cc1 | 4.77
COc1cc(OC)c(C(=O)OCC(=O)Nc2c(C)n(C)n(-c3ccccc3)c2=O)cc1OC | 11
COc1ccc(NC(=S)N(CCN(C)C)Cc2cccs2)cc1 | 2.03
C=C(C)C1CCC2(C(=O)O)CCC3(C)C(CCC4C5(C)C(C=O)C(O)C(C)(C)C5CCC43C)C12 (stereo not shown) | 5.38
CC(C)C(NS(=O)(=O)c1ccccc1)C(=O)N1CCN(C(=O)c2ccco2)CC1 (stereo not shown) | 7.7
CSc1ccc(S(=O)(=O)N(CC(=O)NCc2ccccn2)c2ccc(C)cc2)cc1 | -1.15
Cc1ccc(NC(=O)C(C)Sc2nnc(C)n2C)cc1 (stereo not shown) | 15
Cc1cc(OCC(=O)NCC2CCC(C(=O)O)CC2)c2c(C)c(Cc3ccccc3)c(=O)oc2c1 (stereo not shown) | 12.4
COc1ccc2oc(C(=O)OCC(=O)N(C)c3ccccc3)c(C)c2c1 | 12.5

SMILES | hERG current change (%, negative = inhibition) at 1uM [%]
O=C(NNC(=O)C(c1ccccc1)c1ccccc1)c1ccccn1 | 4.49
Cc1[nH]c2ccccc2c1N=Nc1ccccc1C(=O)O | 11.4
O=C(CSc1nc2ccccc2n1CC(=O)N1CCCC1)Nc1nccs1 | -12.7
CC(=O)N1CCCN(Cc2cn(-c3cc(C)ccc3C)nc2-c2ccccc2)CC1 | -14.1
Cc1cc(OCc2nn[nH]n2)c2c3c(c(=O)oc2c1)CCCC3 | 7.59
Cc1ccc(S(=O)(=O)NC(=O)Nc2ccc(OC(F)F)cc2)cc1 | 3.96
CCn1c(=O)cc(SCC(=O)N2CCN(c3ccccc3OC)CC2)c2ccccc21 | -6.97
CCCCn1c(N)c(N(CCOC)C(=O)c2ccc(-c3ccc(Cl)cc3)o2)c(=O)[nH]c1=O | 6.7
CS(=O)(=O)c1ccc(-c2nnc(NC(=O)C3=COCCO3)o2)cc1 | 6.56
CCCN(CCC)CCNC(=O)C(NS(=O)(=O)c1ccc2c(c1)CCC(=O)N2)c1ccccc1 (stereo not shown) | 5.19
O=C(c1ccc(Cl)nc1)N1CCC(Cc2ccccc2)CC1 | 5.19
CCn1cc(C(=O)NC(C)C2CC3CCC2C3)cn1 (stereo not shown) | 6.6
NC(=O)[C@@H]1CC2(CC(c3cccc(NC(=O)[C@H]4CCC(=O)N4)c3)=NO2)CN1C(=O)c1ccc(Cl)cc1 (stereo partly shown) | 7.6
COc1ccc(N=Cc2c(O)[nH]c3ccccc23)cc1OC | -3.63
Cc1ccccc1CSc1nc2c(c(=O)[nH]1)CCCC2 | 8.2
Cn1nnnc1NCc1ccccc1F | 14
COC(=O)C1=C(C(=O)OC)[C@@H]2N(C)c3ccc(OC)cc3[C@@]23C[C@@H](C(=O)OC)N(C(=O)COCc2ccccc2)C3=N1 | -2.56
COCCNC(=O)CSc1nc2sccc2c(=O)n1-c1ccccc1 | 16.6
CN(C)CCCNC(=O)C(=O)NCC(c1cccs1)S(=O)(=O)c1ccc(F)cc1 (stereo not shown) | 15.6
COc1ccccc1NC(=O)c1ccc(C(=O)Nc2ccccc2OC)nc1 | 16.9
S=C(NC1CCCCC1)N1CCN(c2ncccn2)CC1 | 19.3
O=C(NC(=S)N1C[C@H]2C[C@H](C1)c1cccc(=O)n1C2)c1ccc(Cl)cc1Cl | -5.39

SMILES | hERG current change (%, negative = inhibition) at 1uM [%]
COC(=O)c1cc(S(=O)(=O)NCc2ccccc2Cl)c[nH]1 | 19.2
CN1CCN(c2ccc(NC(=O)Oc3ccccc3)cc2)CC1 | 17.4
O=C(Nc1ccc2c(c1)OCCO2)c1ccncc1 | 11.8
Cl.Clc1ccc(CN2C3=NCCCN3c3ccccc32)cc1Cl | -51.4
Cc1cc(NC(=O)CSc2nnc(C3CC3)n2Cc2ccccc2)no1 | 0.512
O=C1CN(C(=O)CCCc2c[nH]c3ccccc23)c2ccccc2N1 | 6.7
CC(=O)N1CCN(S(=O)(=O)c2cccc(C(=O)OCc3cccc(F)c3)c2)CC1 | 14.4
CCC(C)(C)n1nnnc1CN1CCN(c2nc3cc(OC)ccc3cc2C#N)CC1 | 2.69
O=C(O)[C@H]1C[C@@H]1[C@H](NP(=O)(c1ccccc1)c1ccccc1)c1ccccc1 | 20.9
CCOC(=O)Nc1ccc2nc3n(c(=O)c2c1)CCCCC3 | 9.48
O=C(N/N=C/c1ccc(OC(=O)c2ccco2)cc1)c1ccc[n+]([O-])c1 | 11.8
CSc1nc2nccc(-c3ccc(Oc4ccccc4)cc3)n2n1 | 15.3
Cc1ccc(C)c(CN2CCC(n3nnc4cc(F)ccc43)CC2)c1 | -3.37
CCOc1ccccc1NC(=O)CN(c1ccc(C)cc1)S(=O)(=O)c1c(C)noc1C | 2.63
O=C1CCC(C(=O)N(c2ccccc2)C2(C(=O)NC3CCCCC3)CCCCC2)N1 (stereo not shown) | 10.9
COC(=O)CCc1c(C)c(C(=O)c2cc(OC)c(OC)c(OC)c2)c2ccccn12 | -2.41
O=C(NC1CCCCC1)N(CCO)Cc1cc2cc3c(cc2[nH]c1=O)OCCO3 | 16.2
O=C(NCc1ccc2c(c1)OCO2)c1cc(-n2cnnc2)ccc1Cl | -8.28
COc1ccc(CCNC(=O)/C(=C/c2cccnc2)NC(=O)c2ccccc2)cc1 | 3.27
